Here are results for 59 compounds from paper PMC4336329 (PLoS ONE, 2015).

About 14,000 (4.5%) of roughly 310,000 compounds showed an effect of 50% or more. Effects have a minus sign here. The list shows a part of the results.
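Also: peak tail current of the secondary pulse compared with the same well before compound.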

In this assay the target is human ether-à-go-go-related gene (hERG) potassium channel (human, UniProt Q12809). In words: primary screen, population patch clamp on CHO cells stably expressing hERG.
Chain of human ether-à-go-go-related gene (hERG) potassium channel (Q12809 whole entry, looked up): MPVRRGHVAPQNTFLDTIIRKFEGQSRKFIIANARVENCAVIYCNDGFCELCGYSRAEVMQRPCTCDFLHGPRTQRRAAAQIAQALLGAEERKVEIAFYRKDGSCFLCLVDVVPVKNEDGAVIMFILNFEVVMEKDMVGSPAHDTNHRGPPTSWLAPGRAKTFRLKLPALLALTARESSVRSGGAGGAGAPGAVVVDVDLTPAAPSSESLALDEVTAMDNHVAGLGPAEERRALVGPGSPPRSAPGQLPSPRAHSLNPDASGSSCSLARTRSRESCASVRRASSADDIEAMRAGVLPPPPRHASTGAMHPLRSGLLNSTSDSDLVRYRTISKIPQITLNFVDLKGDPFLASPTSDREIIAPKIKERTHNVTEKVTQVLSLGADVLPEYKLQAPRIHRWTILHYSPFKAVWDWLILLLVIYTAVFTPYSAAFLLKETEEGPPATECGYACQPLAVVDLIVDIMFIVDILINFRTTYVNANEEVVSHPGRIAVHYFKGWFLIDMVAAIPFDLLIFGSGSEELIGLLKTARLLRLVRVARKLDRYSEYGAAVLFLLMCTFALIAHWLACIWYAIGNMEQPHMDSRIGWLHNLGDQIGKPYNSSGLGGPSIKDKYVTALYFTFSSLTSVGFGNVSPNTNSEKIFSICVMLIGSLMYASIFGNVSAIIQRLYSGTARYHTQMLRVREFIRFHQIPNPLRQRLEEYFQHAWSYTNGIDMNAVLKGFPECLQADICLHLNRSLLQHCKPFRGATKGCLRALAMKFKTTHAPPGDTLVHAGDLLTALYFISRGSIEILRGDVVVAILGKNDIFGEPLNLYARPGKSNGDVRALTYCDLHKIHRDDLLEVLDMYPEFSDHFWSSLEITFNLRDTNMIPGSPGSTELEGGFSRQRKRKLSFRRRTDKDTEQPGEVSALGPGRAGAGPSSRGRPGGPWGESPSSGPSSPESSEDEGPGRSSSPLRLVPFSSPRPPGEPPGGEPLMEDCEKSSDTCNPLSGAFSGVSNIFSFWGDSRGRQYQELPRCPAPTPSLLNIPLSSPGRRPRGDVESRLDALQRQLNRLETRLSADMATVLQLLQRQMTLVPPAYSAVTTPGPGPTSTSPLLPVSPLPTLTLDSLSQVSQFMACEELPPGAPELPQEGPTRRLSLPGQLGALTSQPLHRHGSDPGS
As to `CC1CN=C(Nc2ccc(F)cc2)S1` (centres unmarked), the “hERG current change (%, negative = inhibition) at 10uM” value is recorded as 5.03%.
Regarding `CC(c1nccs1)N(C)C(=O)c1cn(Cc2cccc3ccccc23)nn1` (centres unmarked), the “hERG current change (%, negative = inhibition) at 10uM” value is -11.8%.
In the case of `O=C(CCN1C(=O)C2CC=CCC2C1=O)Nc1cccc(S(=O)(=O)N2CCCCC2)c1` (centres unmarked) it was -11.2%; in that of `CC(C)N1CC(C(=O)Nc2cc(Cl)cc(Cl)c2)CC1=O` (centres unmarked), -15.1%.
With `COc1cc2c(cc1/C=C1/NC(=O)N(c3ccccc3)C1=O)OCO2`, the “hERG current change (%, negative = inhibition) at 10uM” value is reported as 2.32%.
Consider `Cc1ccccc1NC(=O)c1cc2c(=O)n3cccc(C)c3nc2s1`, for which the “hERG current change (%, negative = inhibition) at 10uM” value is given as -1.7%.
Regarding `O=C1Nc2cc(C(F)(F)F)ccc2N2CCCCC12` (centres unmarked), the “hERG current change (%, negative = inhibition) at 10uM” value was 10.3%.
Next, `O=C(CSc1nc2ccccc2[nH]1)Nc1ccc2c(c1)CCC2`: 17.3%; `O=C(NCc1n[nH]c(=S)n1Cc1ccccc1)c1ccc(Cl)cc1Cl`: -0.26%.
With `CCn1c(CC(=O)Nc2ccc(Cl)cc2)nnc1SCC(=O)N1CCOCC1`, the “hERG current change (%, negative = inhibition) at 10uM” value is recorded as 10.9%.
In the case of `O=C(NC1CCCN(Cc2ccc(Cl)cc2)C1)c1cccc(N2CCCC2=O)c1` (centres unmarked), the “hERG current change (%, negative = inhibition) at 10uM” value is listed as -14.8%.
In the case of `COc1cc(SC)ccc1C(=O)Nc1ccc(Br)cn1` it was 14.4%; in that of `O=C(Nc1ccc(N2CCCCC2)c(Cl)c1)c1ncn[nH]1`, 0.294%.
Next, `O=C(C[C@@H]1NS(=O)(=O)OC2CCCCC21)c1ccccc1` (some centres unmarked): -14.2%; `Cc1ccc(S(=O)(=O)Cn2nnnc2C(C(C)C)N2CCc3ccccc3C2)cc1` (centres unmarked): 2.53%; `O=C(O)/C(=C/c1ccco1)NC(=O)c1ccccc1`: -2.2%.
In the case of `COc1ccc(OC)c(-c2nnc(SCC(=O)N3CCCC3)o2)c1` it was 5.59%; in that of `O=C(NCc1ccco1)C(=O)c1cn(CC(=O)N2CCCCC2)c2ccccc12`, 19.3%.
As to `Cc1cccc2cc(C#N)c(NCCNC(=O)NC3CCCCC3)nc12`, the “hERG current change (%, negative = inhibition) at 10uM” value was determined as 5.16%.
Turning to `COc1ccc(N2C(=O)CC(NCc3ccc(F)cc3)C2=O)cc1` (centres unmarked), the “hERG current change (%, negative = inhibition) at 10uM” value is 7.01%.
Turning to `O=C(NCCCN1CCN(c2ccc(F)cc2)CC1)Nc1ccc([N+](=O)[O-])cc1`, the “hERG current change (%, negative = inhibition) at 10uM” value is given as -73.9%.
In the case of `C/C(=N\NC(=O)C1CC1)c1ccc(Cl)c(Cl)c1`, the “hERG current change (%, negative = inhibition) at 10uM” value came out at 0.96%.
With `CCNC(=S)NNc1ccccc1`, the “hERG current change (%, negative = inhibition) at 10uM” value was -2.53%.
Take `N=C1C(c2ccccc2)=C(O)CN1c1cccc(O)c1`: the “hERG current change (%, negative = inhibition) at 10uM” value is given as 21.4%.
Turning to `O=[N+]([O-])c1cc(C(F)(F)F)ccc1NCCCCNS(=O)(=O)c1ccc2ccccc2c1`, the “hERG current change (%, negative = inhibition) at 10uM” value is given as -11.3%.
In the case of `Cc1cc(C)cc(NC(=O)CCN2CCCC2)c1` it was -15.8%; in that of `Cc1nc2nc(CC(=O)O)[nH]n2c(=O)c1[N+](=O)[O-]`, 12.1%; in that of `CCC(=NCCc1c(C)[nH]c2ccccc12)C1=C(O)CC(c2ccccc2)CC1=O` (centres unmarked), 6.02%.
In the case of `CCCNS(=O)(=O)c1ccc(OCC(=O)N2CCN(Cc3ccc4c(c3)OCO4)CC2)cc1` it was -32%.
For the compound `Cn1cc(S(=O)(=O)c2ccccc2)c(=O)c2cc(Cl)ccc21`, the “hERG current change (%, negative = inhibition) at 10uM” value came out at 75%.
Regarding `O=C(C1CCC1)N1CCc2cc(S(=O)(=O)NCCCN3CCCCC3)ccc21`, the “hERG current change (%, negative = inhibition) at 10uM” value amounted to 9.4%.
Next, `O=C1SC(c2ccccc2)=N/C1=C/c1ccco1`: 1.39%; `COC(=O)Cc1c(C)c2c(O)cc(C)cc2oc1=O`: -0.918%.
In the case of `O=C(OCc1ccc(O)cc1)c1c(-c2ccsc2)oc2ccc(N3CCOCC3)cc12` it was 2.97%.
For `CN(C)c1nc(N2CCN(c3ccccc3)CC2)c(C#N)c(=O)o1`, the “hERG current change (%, negative = inhibition) at 10uM” value is listed as -16.9%.
Turning to `CC(=O)NNC(=S)NCCc1ccccc1`, the “hERG current change (%, negative = inhibition) at 10uM” value is 9.42%.
`CCOc1ccc(C(=O)Nc2cccc(C(C)=O)c2)cc1[N+](=O)[O-]`: the “hERG current change (%, negative = inhibition) at 10uM” value is on record as -26.2%.
With `COc1ccc(C)cc1N(CC(=O)Nc1ccc(S(=O)(=O)N2CCOCC2)cc1)S(C)(=O)=O`, the “hERG current change (%, negative = inhibition) at 10uM” value was -9.84%.
In the case of `COc1ccc(OCC(=O)NC2CCCN(Cc3ccc(Cl)cc3)C2)cc1` (centres unmarked) it was -29.4%; in that of `O=C(NC(CO)c1ccccc1)c1ccco1` (centres unmarked), 12.4%.
Next, `c1ccc(CCCc2nc(-c3cccnc3)no2)cc1`: 19.2%; `COc1cc(CCCN2C(=O)C(=O)NC[C@@H]2c2ccccc2)cc(OC)c1OC`: 3.38%.
Take `CCOC(=O)c1ccc(NC(=O)c2c(N)n(Cc3ccccc3)c(=O)[nH]c2=O)cc1`: the “hERG current change (%, negative = inhibition) at 10uM” value was 38.7%.
In the case of `COc1ccccc1CNC(=O)COC(=O)c1cc(C)oc1C` it was 0.456%; in that of `COc1ccc(NC2=NC(=S)N(c3ccccc3C)C23CCCCC3)cc1`, 10.6%.
Turning to `CCCCNC(=S)Nc1cc([N+](=O)[O-])ccc1C`, the “hERG current change (%, negative = inhibition) at 10uM” value was determined as 11.6%.
In the case of `Cc1ccc(NC(=O)C2CCC(N3C(=O)C4CCCCC4C3=O)CC2)cc1` (centres unmarked) it was 0.246%.
Regarding `Cc1ccccc1-n1c(Cc2cccs2)n[nH]c1=S`, the “hERG current change (%, negative = inhibition) at 10uM” value stood at 14.3%.
Consider `O=C(NCC1CCCO1)c1csc2c1CCCC2` (centres unmarked), for which the “hERG current change (%, negative = inhibition) at 10uM” value amounted to 5.69%.
Next, `CC(=O)Nc1ccc(S(=O)(=O)N(C)Cc2cnn(C)c2)cc1`: 8%; `O=[N+]([O-])c1nn(-c2ccc3c(c2)OCCO3)n(O)c1=NC1CCCCC1`: -8.03%; `O=C1NC(=S)S/C1=C/c1ccc(N2CCOCC2)o1`: 9.27%.
Regarding `O=C(OCCCc1cc2ccccc2c(=O)o1)c1ccc2c(c1)OCO2`, the “hERG current change (%, negative = inhibition) at 10uM” value is recorded as -12.9%.
For the compound `O=C(O)c1nnn(-c2ccc(F)cc2F)c1-c1ccccc1`, the “hERG current change (%, negative = inhibition) at 10uM” value worked out at 11.9%.
On to `CCOC(=O)N1CCC(NC(=O)c2cc3cc4cc(OC)ccc4nc3o2)CC1`, for which the “hERG current change (%, negative = inhibition) at 10uM” value was -16.2%.
For `N#CC1=C(N)OC2=C(C(=O)CCC2)C1c1cc2c(cc1Cl)OCO2` (centres unmarked), the “hERG current change (%, negative = inhibition) at 10uM” value was -1.45%.
In the case of `Cn1c(CSc2nc3ccccc3s2)nc2ccccc21` it was -19.6%; in that of `O=C(c1cc(F)ccc1F)C1CCCN(C(=O)c2ccco2)C1` (centres unmarked), -2.45%.
In the case of `CCOc1ccc(NC(=O)CSc2nnc(Cc3csc(C)n3)o2)cc1` it was 6.77%.
